The source gives no read counts; variants with many changes may rest on few reads.
B1: LINE1-full (parent)
chain: UACGUAGGUGGUUUUCCCCUGAUAGUGCUAAGGGGGCCUGGAAGUUUGGACUGGGCAGAGCUCAACACAGCGUGGCAAAGUGGCUGUGGCUAGACUGCCUCUCUGGAUUCCUCGUCACUCAGCAGGGCAUCUCUGAGAGAAAUGCC

Variants of: B1
Test: self-cleavage, relative activity (ratio to wild type); higher = more cleavage; in vitro, sequencing; the parent is a self-cleaving ribozyme

Variant | self-cleavage
UACGUAGGUGGUUUUCCCCUGAUAGUGCUAAGGGGGCCUGGAAGUUUGGACUGGGCUGAGCUCAACACAGCGUGGCAAAGUGGCUGUGGCUAGACUGCCUCUCUGGAUACCUCGUCACCCAGCAGGGCAUCUCUGAGAGAAAUGCC | 0.13
UACGUAGGUGGUUUUCCCCUGAUAGUGCUAAGGGGGCCUGGAAGUUUGGACUGGGCUGAGCUCAACACAGCGUGGCAAAGUGGCUGUGGCUAGACUGCCUCUCUGGAUUCCUCGUCACCCAGCAGGGCAUCUCGGAGAGAAAUGCC | 0.31
UACGUAGGUGGUUUUCCCCUGAUAGUGCUAAGGGGGCCUGGAAGUUUGGACUGGGCAAUGCUCAGCACAGCGUGGCAAAGUGGCUGUGGCUAGACUGCCUCUCUGGAUUCCUCGUCACUCAGCAGGGCAUCUCUGAGAGAAAUGCC | 0.04
UACGUAGGUGGUUUUCCCCUGAUAGUGCUAAGGGGGCCUGGAAGUUUGGACUGGGCAUAGCUCAACACAGCGUGGCAAAGUGGCUGUGGCUAGGCUGCCUCUCUGGAUCCCUCGUCACUCAGCAGGGCAUCUCUGAGAGAAAUGCC | 0.07
UACGUAGGUGGUUUUCCCCUGAUAGUGCUAAGGGGGCCUGGAAGUUUGGACUGGGCAUAGCUCAACACAGCGUGGCAAAGUGGCUGUGGCUAGACUGCCUCUCUGGAUUCCUCGUCACUCAGCUGGGCACCUCUGAGAGAAAUGCC | 0.02
UACGUAGGUGGUUUUCCCCUGAUAGUGCUAAGGGGGCCUGGAAGUUUGGACUGGGCAUAGCUCAACACAGCGUGGCAAAGUAGCUGUGGCUAGACUGCCUCUCUGGAUUCCUCGUCACUCAGCAGGGCAUCUCUGAGAGAAAAGCC | 0.05
UACGUAGGUGGUUUUCCCCUGAUAGUGCUAAGGGGGCCUGGAAGUUUGGACUGGGCAUAGCUCAACACAGCGUGGCAAAGUGGCAGUGGCUAGACUGCCUCUCUGGAUUCCUCGUCACCCAGCAGGGCAUCUCUGAGAGAGAUGCC | 0.04
UACGUAGGUGGUUUUCCCCUGAUAGUGCUAAGGGGGCCUGGAAGUUUGGACUGGGCAUAGCUCAACACAGCGUGGCAAAGUGGCUGUGGCUAGACUGCCCCUCUGGAUCCCUCGUCACUCAGCAGGGCACCUCUGAGAGAAAUGCC | 0.05
UACGUAGGUGGUUUUCCCCUGAUAGUGCUAAGGGGGCCUGGAAGUUUGGACUGGGCAUAGCUCAACACAGCGUGGCAAAGUGGCUGUGGCUAGACUGCCUCUCCGGAUUCCUCGUCGCUCCGCAGGGCAUCUCUGAGAGAAGUGCC | 0.08
UACGUAGGUGGUUUUCCCCUGAUAGUGCUAAGGGGGCCUGGAAGUUUGGACUGGGCAGCGCUCAACACAGCGUGGCAGAGUGGCUGUGGCUAGACUGCCUCUCUGGAUUCCUCGUCACUCAGCAGGGCAUCUCUGAGAGAAACGCC | 1.06
UACGUAGGUGGUUUUCCCCUGAUAGUGCUAAGGGGGCCUGGAAGUUUGGACUGGGCAGCGCUCAACACAGCGUGGCAAAGUGGCUGUGGCUAGACUGCCUCUCGGGAUUCCUCGUCACUCAGCAGGGCAUCUCUGAGAGGAAUGCC | 0.14
UACGUAGGUGGUUUUCCCCUGAUAGUGCUAAGGGGGCCUGGAAGUUUGGACUGGGCAGCGCUCAACACAGCGUGGCAAAGUGGCUGUGGCUAGACUGCCUCUCUGGAUUCCACGUCACUCAGCAGGGCAUCCCUGAGAGAAAUGCC | 0.95
UACGUAGGUGGUUUUCCCCUGAUAGUGCUAAGGGGGCCUGGAAGUUUGGACUGGGCAGGGCUCCACACAGCGUGGCUAAGUGGCUGUGGCUAGACUGCCUCUCUGGAUUCCUCGUCACUCAACAGGGCAUCUCUGAGAGCAAUGCC | 0.04
UACGUAGGUGGUUUUCCCCUGAUAGUGCUAAGGGGGCCUGGAAGUUUGGACUGGGCAGGGCUCGACACGGCGUGGCAAAGUGGCUGUGGCUAGACUGCCUCUCUGGAUUCCUCGUCACUCAGCAGAGCAUCUCUGAGAGAAAUGCC | 0.22
UACGUAGGUGGUUUUCCCCUGAUAGUGCUAAGGGGGCCUGGAAGUUUGGACUGGGCAGGGCUCGACACAGCGUGGCAAAGUGGCUGUGGCUAGACUGCCUCUCUGGAUUCCUCGUCACUCAGCAGGGCAUCUCAGAGAGAAAUGCC | 0.09
UACGUAGGUGGUUUUCCCCUGAUAGUGCUAAGGGGGCCUGGAAGUUUGGACUGGGCAGGGCUCAGCACAGCGUGGCAAAGUGGCUGUGGCUAGACUGCCUCUCUGGAUUCCUCGUCACUCAGCAGGGUAUCUCUGAGAGAAAUGCC | 0.08
UACGUAGGUGGUUUUCCCCUGAUAGUGCUAAGGGGGCCUGGAAGUUUGGACUGGGCAGGGCUCAACGCAGCGUGGCAAAGUGGCUGUGGCUAGACUGCCUCUCUAGAUUCCUCGCCACUCAGCAGGGCAUCUCUGAGAGAAAUGCC | 0
UACGUAGGUGGUUUUCCCCUGAUAGUGCUAAGGGGGCCUGGAAGUUUGGACUGGGCAGGGCUCAACGCAGCGAGGCAAAGUGGCUGUGGCUAGACUGCCUCUCUGGAUUCCUCGUCACUCAGCAGGGCAUCUCUGAGAGAAAUGCC | 0.04
UACGUAGGUGGUUUUCCCCUGAUAGUGCUAAGGGGGCCUGGAAGUUUGGACUGGGCAGGGCUCAACGCAGCGUGGCAAAGUGGCAGUGGCUAGACUGCCUCUCUGGAUUCCUCGUCACUCAGCAGGGCAUCCCUGAGAGAAAUGCC | 0
UACGUAGGUGGUUUUCCCCUGAUAGUGCUAAGGGGGCCUGGAAGUUUGGACUGGGCAGGGCUCAACUCAGCGUGGCAAAGUGGCUGUGGCUAGGCUGCCUCUCUGGAUUCCUCGUCACUCAGCAGGGCAUCUCUGAGAGAAAUGCC | 0

Variant | self-cleavage
UACGUAGGUGGUUUUCCCCUGAUAGUGCUAAGGGGGCCUGGAAGUUUGGACUGGGCAGGGCUCAACACGGCGUGGCAAGGUGGCUGUGGCAAGACUGCCUCUCUGGAUUCCUCGACACUCAGCAGGGCAUCUCUGAGAGAAAUGCC | 0
UACGUAGGUGGUUUUCCCCUGAUAGUGCUAAGGGGGCCUGGAAGUUUGGACUGGGCAGGGCUCAACACUGCGUGGCAAAGUGGCUGUGGCUAGACUGCCUCUCUGGAUUCCUCGUCACUCAGCAGGGCAUCUCUGAGAGAGAUGCC | 0
UACGUAGGUGGUUUUCCCCUGAUAGUGCUAAGGGGGCCUGGAAGUUUGGACUGGGCAGGGCUCAACACAGCGUGGCUAAGUGGCUGUGGCUAGACUGCCUCUCUGGAUUCCUCGUCACUCAGCAGAGCAUCUCUGAGAGAAAUGCC | 0.03
UACGUAGGUGGUUUUCCCCUGAUAGUGCUAAGGGGGCCUGGAAGUUUGGACUGGGCAGGGCUCAACACAGCGUGGCAGAGUGGCUGUGGCUAGACUGCCUCUCUGGAUUCCUCGUCACUCAGCAGGGCAUCUCUGAGGGAAAUGCC | 0.18
UACGUAGGUGGUUUUCCCCUGAUAGUGCUAAGGGGGCCUGGAAGUUUGGACUGGGCAGGGCUCAACACAGCGUGGCAGAGUGGCUGUGGCUAGACUGCCUCUCUGAAUUCCUCGUCACACAGCAGGGCAUCUCUGAGAGAAAUGCC | 0.04
UACGUAGGUGGUUUUCCCCUGAUAGUGCUAAGGGGGCCUGGAAGUUUGGACUGGGCAGGGCUCAACACAGCGUGGCAGAGUGGCCGUGGCUAGACUGCCUCUCUGGAUUCCUCGUCACUCAGCAGGGCAUCUCUGAGAGAAAUGCC | 0.09
UACGUAGGUGGUUUUCCCCUGAUAGUGCUAAGGGGGCCUGGAAGUUUGGACUGGGCAGGGCUCAACACAGCGUGGCAAGGUGGCAGUGGCUAGAUCGCCUCUCUGGAUUCCUCGUCACUCAGCAGGGCAUCUCUGAGAGAAAUGCC | 0
UACGUAGGUGGUUUUCCCCUGAUAGUGCUAAGGGGGCCUGGAAGUUUGGACUGGGCAGGGCUCAACACAGCGUGGCAAAGUGGCUGUGGCUAGCCUGCCUCUCUGGAUUCCUCGUCACUCAGCAGGGCAUCUCUGAGAGAAGUGCC | 0
UACGUAGGUGGUUUUCCCCUGAUAGUGCUAAGGGGGCCUGGAAGUUUGGACUGGGCAGGGCUCAACACAGCGUGGCAAAGUGGCUGUGGCUAGACUGCCUCUCUGGAUUCCUCGUCGCUCAGCAGGGCAUCUCUGAGAGAAACGCC | 0
UACGUAGGUGGUUUUCCCCUGAUAGUGCUAAGGGGGCCUGGAAGUUUGGACUGGGCAGGGCUCAACACAGCGUGGCAAAGUGGCUGUGGCUAGACUGCCUCUCUGGAUUCCUCGUCACUCGGCGGGGCAUCUCUGAGAGAAAUGCC | 0.25
UACGUAGGUGGUUUUCCCCUGAUAGUGCUAAGGGGGCCUGGAAGUUUGGACUGGGCAGGGCUCAACACAGCGUGGCAAAGUGGCUGUGGCUAGACUGCCUCUCUGGAUUCCUCGUCACUCAGCAGGGCAUCUCUGGGGGAAAUGCC | 0.05
UACGUAGGUGGUUUUCCCCUGAUAGUGCUAAGGGGGCCUGGAAGUUUGGACUGGGCAGGGUUCAACACGGCGAGGCAAAGUGGCUGUGGCUAGACUGCCUCUCUGGAUUCCCCGUCACUCAGCAGGGCAUCUCUGAGAGAAGUGCC | 0.26
UACGUAGGUGGUUUUCCCCUGAUAGUGCUAAGGGGGCCUGGAAGUUUGGACUGGGCAGGGUUCAACACAGCGAGGCAAAGUGGCUGUGGCUAGACUGCCUCUCUGGAUUCCUCGUCACUCAGCAGUGCAUCUCUGAGAGAAAUGCC | 0.03
UACGUAGGUGGUUUUCCCCUGAUAGUGCUAAGGGGGCCUGGAAGUUUGGACUGGGCAGGGCUCAACACAGCGUGGUAAAGUGGCAGUGGCUAGACUACCUCUCUGGAUUCCUCGUUACUCAGCAGGGCAUCUCUGAGAGAGAUGCC | 0.01
UACGUAGGUGGUUUUCCCCUGAUAGUGCUAAGGGGGCCUGGAAGUUUGGACUGGGCAGGGCUCAACACAGCGUGGCAAAGUGGCUGUGGCUAGACUGCUUCUCUGGAUUCCUCGUCACUCGGCAGGGCAUCUCUGAGAGAAAUGCC | 0.18
UACGUAGGUGGUUUUCCCCUGAUAGUGCUAAGGGGGCCUGGAAGUUUGGACUGGGCAGGACUCAACACAGCGUGGCAAAGUGGCUGUGGCUAGGCUGCCUCUCUGGAUUCCUCGUCUCUCAGCAGGGCAUCUCUGAGAGAGACGCC | 0.07
UACGUAGGUGGUUUUCCCCUGAUAGUGCUAAGGGGGCCUGGAAGUUUGGACUGGGCAGGACUCAACACAGCGAGGCAAAGUGGCUGUGGCCAGACUGCCUCUCUGGAUUCCUCGUCACUCAGCAGGGCAUCUCUGAGAGAAAUGCC | 0.01
UACGUAGGUGGUUUUCCCCUGAUAGUGCUAAGGGGGCCUGGAAGUUUGGACUGGGCAGGGCUCAACACAGCCUGGCAAAGUGGCGGUGGCUAGACUGCCUCUCUGGAUUCCUCAUCACUCAGCAGGGCACCUCUGAGAGAAAUGCC | 0
UACGUAGGUGGUUUUCCCCUGAUAGUGCUAAGGGGGCCUGGAAGUUUGGACUGGGCAGGGCUCAACACAGCGUGACAAAGUGGCUGUGGCUAGACUGCCUCUCUGGAUUCCUCGUCACUCAGCAGGGCAUCUCUGAGAGGAAUGCC | 0.04

From the RNAGym collection of RNA variant scans (doi:10.7554/elife.90254)
